# Test results published in the supplement of paper PMC8728848.
# Some of the results follow.
# B1: CVN-E41G (protein)
# chain: MHHHHHHENLYFQSGNFSQACYNSAIQGSVLTSTCIRTNGGYNTSSIDLNSVIANVDGSLKWQGSNFIETCRNTQLAGSSELAAECKTRAQQFVSTKINLDDHIAAIDGTLKYE
# Columns and labels:
# Experiment in all cases: glycan array binding signal (z-score within array); higher = stronger binding
# Settings in all cases: glycan notation: IUPAC condensed, linker removed; mutation: E41A
# Gal(a1-6)Glc = target: Gal(a1-6)Glc
# Outline: (§1)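 Negative Z-scores can be read as non-binding. The Z-score is calculated within each array and then averaged across arrays of one protein sequence at different concentrations or buffers and across linkers. Arrays, 3228 in all, were curated from the Consortium for Functional Glycomics database and kept only where the protein sequence was available.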
# Gal(b1-2)Gal = target: Gal(b1-2)Gal
# Outline: as §1
# Gal(b1-3)Gal = target: Gal(b1-3)Gal
# Outline: as §1
# Gal(b1-3)Gal(b1-4)GlcNAc = target: Gal(b1-3)Gal(b1-4)GlcNAc
# Outline: as §1
# Gal(b1-3)GalNAc = target: Gal(b1-3)GalNAc
# Outline: as §1
# [1] = target: Gal(b1-3)GalNAc(a1-3)[Fuc(a1-2)]Gal(b1-4)Glc
# Outline: as §1
# [2] = target: Gal(b1-3)GalNAc(a1-3)[Fuc(a1-2)]Gal(b1-4)GlcNAc
# Outline: as §1
# Gal(b1-3)GalNAc(b1-3)Gal = target: Gal(b1-3)GalNAc(b1-3)Gal
# Outline: as §1
# [3] = target: Gal(b1-3)GalNAc(b1-3)Gal(a1-4)Gal(b1-4)Glc
# Outline: as §1
# [4] = target: Gal(b1-3)GalNAc(b1-4)Gal(b1-4)Glc
# Outline: as §1
# [5] = target: Gal(b1-3)GalNAc(b1-4)[Neu5Ac(a2-3)]Gal(b1-4)Glc
# Outline: as §1
# Gal(b1-3)GlcNAc = target: Gal(b1-3)GlcNAc
# Outline: as §1
# [6] = target: Gal(b1-3)GlcNAc(a1-3)Gal(b1-4)GlcNAc
# Outline: as §1
# [7] = target: Gal(b1-3)GlcNAc(a1-6)Gal(b1-4)GlcNAc
# Outline: as §1
# Gal(b1-3)GlcNAc(b1-2)Man = target: Gal(b1-3)GlcNAc(b1-2)Man
# Outline: as §1
# [8] = target: Gal(b1-3)GlcNAc(b1-2)Man(a1-3)[Gal(b1-3)GlcNAc(b1-2)Man(a1-6)]Man(b1-4)GlcNAc(b1-4)GlcNAc
# Outline: as §1
# [9] = target: Gal(b1-3)GlcNAc(b1-2)Man(a1-3)[Gal(b1-3)GlcNAc(b1-2)Man(a1-6)]Man(b1-4)GlcNAc(b1-4)[Fuc(a1-6)]GlcNAc
# Outline: as §1
# [10] = target: Gal(b1-3)GlcNAc(b1-2)Man(a1-3)[GlcNAc(b1-4)][Gal(b1-3)GlcNAc(b1-2)Man(a1-6)]Man(b1-4)GlcNAc(b1-4)GlcNAc
# Outline: as §1
# [11] = target: Gal(b1-3)GlcNAc(b1-2)[Gal(b1-3)GlcNAc(b1-6)]Man(a1-6)[Gal(b1-3)GlcNAc(b1-2)Man(a1-3)]Man(b1-4)GlcNAc(b1-4)GlcNAc
# Outline: as §1
# [12] = target: Gal(b1-3)GlcNAc(b1-3)Gal(b1-3)GlcNAc
# Outline: as §1
# [13] = target: Gal(b1-3)GlcNAc(b1-3)Gal(b1-4)Glc
# Outline: as §1
# [14] = target: Gal(b1-3)GlcNAc(b1-3)Gal(b1-4)GlcNAc
# Outline: as §1
# [15] = target: Gal(b1-3)GlcNAc(b1-3)Gal(b1-4)GlcNAc(b1-2)Man(a1-3)[Gal(b1-3)GlcNAc(b1-3)Gal(b1-4)GlcNAc(b1-2)Man(a1-6)]Man(b1-4)GlcNAc(b1-4)GlcNAc
# Outline: as §1
# [16] = target: Gal(b1-3)GlcNAc(b1-3)Gal(b1-4)GlcNAc(b1-2)[Gal(b1-3)GlcNAc(b1-3)Gal(b1-4)GlcNAc(b1-6)]Man(a1-6)[Gal(b1-3)GlcNAc(b1-3)Gal(b1-4)GlcNAc(b1-2)Man(a1-3)]Man(b1-4)GlcNAc(b1-4)[Fuc(a1-6)]GlcNAc
# Outline: as §1
# [17] = target: Gal(b1-3)GlcNAc(b1-3)Gal(b1-4)GlcNAc(b1-3)Gal(b1-4)GlcNAc(b1-2)[Gal(b1-3)GlcNAc(b1-3)Gal(b1-4)GlcNAc(b1-3)Gal(b1-4)GlcNAc(b1-6)]Man(a1-6)[Gal(b1-3)GlcNAc(b1-3)Gal(b1-4)GlcNAc(b1-3)Gal(b1-4)GlcNAc(b1-2)Man(a1-3)]Man(b1-4)GlcNAc(b1-4)[Fuc(a1-6)]GlcNAc
# Outline: as §1
# [18] = target: Gal(b1-3)GlcNAc(b1-3)Gal(b1-4)GlcNAc(b1-6)[Gal(b1-3)GlcNAc(b1-3)]Gal(b1-4)Glc
# Outline: as §1
# [19] = target: Gal(b1-3)GlcNAc(b1-3)Gal(b1-4)[Fuc(a1-3)]GlcNAc
# Outline: as §1
# [20] = target: Gal(b1-3)GlcNAc(b1-3)Gal(b1-4)[Fuc(a1-3)]GlcNAc(b1-6)[Gal(b1-3)GlcNAc(b1-3)]Gal(b1-4)Glc
# Outline: as §1
# [21] = target: Gal(b1-3)GlcNAc(b1-3)GalNAc
# Outline: as §1
# [22] = target: Gal(b1-3)GlcNAc(b1-6)Gal(b1-4)GlcNAc
# Outline: as §1
# [23] = target: Gal(b1-3)GlcNAc(b1-6)GalNAc
# Outline: as §1
# [24] = target: Gal(b1-3)GlcNAc(b1-6)[Gal(b1-3)]GalNAc
# Outline: as §1
# Gal(b1-3)GlcNAc6S = target: Gal(b1-3)GlcNAc6S
# Outline: as §1
# [25] = target: Gal(b1-3)[Fuc(a1-4)]GlcNAc
# Outline: as §1
# [26] = target: Gal(b1-3)[Fuc(a1-4)]GlcNAc(b1-2)Man
# Outline: as §1
# [27] = target: Gal(b1-3)[Fuc(a1-4)]GlcNAc(b1-2)Man(a1-3)[Gal(b1-3)[Fuc(a1-4)]GlcNAc(b1-2)Man(a1-6)]Man(b1-4)GlcNAc(b1-4)[Fuc(a1-6)]GlcNAc
# Outline: as §1
# [28] = target: Gal(b1-3)[Fuc(a1-4)]GlcNAc(b1-3)Gal(b1-3)[Fuc(a1-4)]GlcNAc
# Outline: as §1
# [29] = target: Gal(b1-3)[Fuc(a1-4)]GlcNAc(b1-3)Gal(b1-4)[Fuc(a1-3)]GlcNAc
# Outline: as §1
# [30] = target: Gal(b1-3)[Fuc(a1-4)]GlcNAc(b1-6)GalNAc
# Outline: as §1
# [31] = target: Gal(b1-3)[GlcNAc(b1-6)]GalNAc
# Outline: as §1
# [32] = target: Gal(b1-3)[Neu5Ac(a2-6)]GalNAc
# Outline: as §1
# [33] = target: Gal(b1-3)[Neu5Ac(a2-6)]GlcNAc(b1-4)Gal(b1-4)Glc
# Outline: as §1
# [34] = target: Gal(b1-3)[Neu5Ac(b2-6)]GalNAc
# Outline: as §1
# Gal(b1-4)Gal = target: Gal(b1-4)Gal
# Outline: as §1
# [35] = target: Gal(b1-4)GalNAc(a1-3)[Fuc(a1-2)]Gal(b1-4)GlcNAc
# Outline: as §1
binder,measurement,setting,value
B1,glycan array binding signal (z-score),Gal(a1-6)Glc,-0.197
same,glycan array binding signal (z-score),Gal(b1-2)Gal,-0.195
same,glycan array binding signal (z-score),Gal(b1-3)Gal,-0.214
same,glycan array binding signal (z-score),Gal(b1-3)Gal(b1-4)GlcNAc,-0.227
same,glycan array binding signal (z-score),Gal(b1-3)GalNAc,-0.031
same,glycan array binding signal (z-score),[1],-0.002
same,glycan array binding signal (z-score),[2],-0.148
same,glycan array binding signal (z-score),Gal(b1-3)GalNAc(b1-3)Gal,-0.08
same,glycan array binding signal (z-score),[3],-0.198
same,glycan array binding signal (z-score),[4],-0.211
same,glycan array binding signal (z-score),[5],-0.196
same,glycan array binding signal (z-score),Gal(b1-3)GlcNAc,-0.214
same,glycan array binding signal (z-score),[6],-0.24
same,glycan array binding signal (z-score),[7],-0.194
same,glycan array binding signal (z-score),Gal(b1-3)GlcNAc(b1-2)Man,-0.089
same,glycan array binding signal (z-score),[8],0.128
same,glycan array binding signal (z-score),[9],-0.149
same,glycan array binding signal (z-score),[10],0.791
same,glycan array binding signal (z-score),[11],0.54
same,glycan array binding signal (z-score),[12],-0.207
same,glycan array binding signal (z-score),[13],-0.163
same,glycan array binding signal (z-score),[14],-0.216
same,glycan array binding signal (z-score),[15],0.194
same,glycan array binding signal (z-score),[16],0.977
same,glycan array binding signal (z-score),[17],0.792
same,glycan array binding signal (z-score),[18],1.14
same,glycan array binding signal (z-score),[19],-0.234
same,glycan array binding signal (z-score),[20],-0.208
same,glycan array binding signal (z-score),[21],-0.171
same,glycan array binding signal (z-score),[22],-0.121
same,glycan array binding signal (z-score),[23],-0.225
same,glycan array binding signal (z-score),[24],-0.091
same,glycan array binding signal (z-score),Gal(b1-3)GlcNAc6S,-0.196
same,glycan array binding signal (z-score),[25],-0.176
same,glycan array binding signal (z-score),[26],-0.138
same,glycan array binding signal (z-score),[27],0.49
same,glycan array binding signal (z-score),[28],-0.092
same,glycan array binding signal (z-score),[29],-0.204
same,glycan array binding signal (z-score),[30],-0.147
same,glycan array binding signal (z-score),[31],-0.167
same,glycan array binding signal (z-score),[32],-0.17
same,glycan array binding signal (z-score),[33],-0.189
same,glycan array binding signal (z-score),[34],-0.243
same,glycan array binding signal (z-score),Gal(b1-4)Gal,-0.215
same,glycan array binding signal (z-score),[35],-0.22
